Data as given in publication PMC6919601, “Identification of Plasmodium dipeptidyl aminopeptidase allosteric inhibitors by high throughput screening” (PLoS ONE, 2019).
About 230 (0.21%) of roughly 110,000 compounds showed an effect of 50% or more. The list shows a part of the results.

Target: DPAP1 (Plasmodium falciparum, UniProt Q8IIJ9)
Assay: primary screen, percent inhibition; read by cleavage of a fluorogenic dipeptide substrate; higher = more effect of the substance
Set-up: species or system P. falciparum D10 trophozoite lysates; single well
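Note: 30 min substrate incubation versus DMSO and 10 µM JCP410 controls.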

Chain of DPAP1 (Q8IIJ9 whole entry, looked up): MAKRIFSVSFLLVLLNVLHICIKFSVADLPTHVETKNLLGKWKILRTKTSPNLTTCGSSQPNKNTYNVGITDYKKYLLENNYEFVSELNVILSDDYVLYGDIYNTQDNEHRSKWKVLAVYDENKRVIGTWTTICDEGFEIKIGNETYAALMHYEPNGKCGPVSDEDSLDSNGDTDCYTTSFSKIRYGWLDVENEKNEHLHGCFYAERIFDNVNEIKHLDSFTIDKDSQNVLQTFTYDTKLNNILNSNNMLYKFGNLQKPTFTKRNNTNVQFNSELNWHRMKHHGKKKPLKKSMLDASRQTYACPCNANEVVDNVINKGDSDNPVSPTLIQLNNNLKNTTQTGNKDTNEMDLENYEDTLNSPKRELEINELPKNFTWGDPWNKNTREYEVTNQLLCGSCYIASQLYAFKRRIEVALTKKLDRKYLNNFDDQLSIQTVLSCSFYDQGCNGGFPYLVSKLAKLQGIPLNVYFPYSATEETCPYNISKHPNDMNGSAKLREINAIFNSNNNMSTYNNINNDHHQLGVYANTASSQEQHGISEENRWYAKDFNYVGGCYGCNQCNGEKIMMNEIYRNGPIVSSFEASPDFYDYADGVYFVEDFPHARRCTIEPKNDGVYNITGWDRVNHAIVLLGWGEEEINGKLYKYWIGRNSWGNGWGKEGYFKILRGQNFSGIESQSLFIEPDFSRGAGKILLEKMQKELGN

SMILES	% Inhibition @ 10 uM
CCOc1cccc2cc(-c3nc(-c4ccccc4)no3)c(=O)oc12	-3.43%
Cc1cc2nc3s/c(=C\c4cccc(Cl)c4Cl)c(=O)n3c2cc1C	3.61%
COc1cccc(OC)c1C(=O)NCC1COc2ccccc2O1 (stereo not shown)	4.35%
Clc1ccc(-c2noc3ncnc(N4CCN(Cc5ccc6c(c5)OCO6)CC4)c23)cc1	-3.95%
O=C(Nc1cccnc1)C1CCCN(c2ncnc3c2nc2n3CCCCC2)C1 (stereo not shown)	0.244%
OC1(c2ccc(Cl)cc2)CCN(Cc2ccc(F)c(Br)c2)CC1	-1.21%
Cn1ccc(/C=C2/CCC/C(=C\c3ccn(C)n3)C2=O)n1	0.64%
Cc1cccc(NC(=O)c2c(C)oc3ncn(C)c(=O)c23)n1	-2.41%
C=CCOc1ccc(C2c3c(oc4cc(C)c(C)cc4c3=O)C(=O)N2CCCN2CCOCC2)cc1 (stereo not shown)	2.31%
Cc1ccc(C)c(CN2CCC(O)C2)c1 (stereo not shown)	-0.0648%
Cc1nc(S)c2c3c(sc2n1)CCCC3	29%
CCCC(=O)Nc1ccc(C(=O)Nc2cc(OC)c(Cl)cc2OC)cc1	-1.44%
COc1ccc(CCN2C(=O)CC(Cc3ccc(C)cc3)C2=O)cc1OC (stereo not shown)	1.68%
O=C(Nc1cccc2cccnc12)c1ccc(Br)o1	1.39%
CCn1cc(C(=O)N2CCN(c3ccccn3)CC2)c2cc(OC)c(OC)cc2c1=O	-7.33%
CCOc1ccc(NC(=O)C(C)Oc2ccccc2C)cc1 (stereo not shown)	0.331%
CCN(CC)c1ccc(NC(=O)COC)cc1	4.06%
N=C(NOC(=O)c1ccccc1Cl)c1ncon1	-2.26%
CC(=O)c1ccc(NC(=O)COc2ccccc2C)cc1	7.66%
CCCCNC(=O)c1ccc(CS(=O)c2ccccc2C)o1 (stereo not shown)	-4.96%
O=C(CN1CCN(Cc2ccc(Cl)cc2)C1=O)NCCCSC1CCCCC1	-6.4%
CCOC(=O)c1c(C)nc(C)c(C(=O)OCC)c1-c1ccccc1Cl	1.57%
N#CC1=C(N)OC2=C(C(=O)CC(c3ccco3)C2)C1c1ccc(F)c(F)c1 (stereo not shown)	-1.06%
Cc1ccc(OCC(=O)Nc2ccc(S(=O)(=O)N3CCN(C)CC3)cc2)c(C)c1	1.83%
Cc1cc2oc3c(c(=O)c2cc1C)C(c1ccc(O)cc1)N(CCCN(C)C)C3=O (stereo not shown)	-4.78%

SMILES	% Inhibition @ 10 uM
NC(=O)c1cccc2c1[nH]c1ccccc12	1.08%
COc1ccc(CNC(=O)c2nn3c(c2Cl)NC(c2cccs2)CC3C(F)(F)F)cc1 (stereo not shown)	-0.142%
Cc1ccccc1OCC(=O)N(C)c1ccc(NC(=O)C(F)(F)F)cc1	-2.56%
COc1ccc(NC(=O)c2cc(Cl)ccc2Cl)cc1[N+](=O)[O-]	-3.77%
CC1CCC(N2CCCN(C)CC2)CC1 (stereo not shown)	-1.56%
CCCOc1ccc(C2c3c(oc4cc(C)c(C)cc4c3=O)C(=O)N2c2nccs2)cc1 (stereo not shown)	2.1%
COc1ccc2cc3c(N)nn(C(=O)c4ccc(Br)o4)c3nc2c1	1.66%
CCOC(=O)C1CCCCN1Cc1cc(F)ccc1F (stereo not shown)	3.35%
COCCNC(=S)N1CCc2cc(OC)c(OC)cc2C1COc1ccc2c(C)cc(=O)oc2c1 (stereo not shown)	2.17%
CCOC(=O)c1c(NC=O)sc(C)c1-c1ccc2cc(OC)ccc2c1	-2.13%
O=C(c1ccccc1F)N1CCC(c2nc(-c3ccc(S(=O)(=O)N4CCCC4)cc3)no2)CC1	-3.08%
CCc1ccc(N2CCN(S(=O)(=O)N(C)C)CC2)cc1	1.62%
CCOc1ccc(CNS(=O)(=O)c2ccc(-c3ccc(O)nn3)o2)cc1	4.27%
Cc1ccc(C2C(C(=O)c3ccc4c(c3)OCCO4)=C(O)C(=O)N2CCCn2ccnc2)o1 (stereo not shown)	-4.06%
CCc1ccc(C2CC(c3ccccc3)=NN2S(C)(=O)=O)cc1 (stereo not shown)	-10.2%
Cn1cc(CCC(=O)NCc2cccc(Cl)c2)c2ccccc21	9.74%
CCn1cc(CNC(=O)CSc2nc(-c3ccc(OC)c(OC)c3)cc(C(F)(F)F)n2)cn1	26.2%
COc1ccc(C2CC(C(F)(F)F)n3ncc(C(=O)N4CCN(Cc5ccccc5)CC4)c3N2)cc1 (stereo not shown)	4.86%
CCN(CC)CCNC(=O)NS(=O)(=O)c1ccccc1Cl	3.98%
CCOc1ccc(NC=C2C(=O)CC(c3ccc(Cl)cc3)CC2=O)cc1 (stereo not shown)	-2.24%
O=C(COc1ccccc1)NCCCn1ccnc1	0.145%
COc1ccc(NC(=O)C2=C(C)NC(=O)NC2c2ccc(C)cc2)cc1 (stereo not shown)	-2.18%
COc1ccc(-n2c(CNCCc3ccc(C)cc3)nc3ccccc3c2=O)cc1	0.324%
Cc1onc(-c2ccccc2)c1C1=N/C(=C\c2ccc(Br)cc2)C(=O)O1	-4.13%
